PubChem BioAssay AID488969 (Vanderbilt High Throughput Screening Facility, 2010)
The full ranking holds about 110,000 compounds; the median of “z-score” is about -0.1, and the highest 2% start at about 2. This is one part of the list. The source made the active and inactive calls.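 How the source made its calls: active means z-score in the third read window above 3 or below -3; inactive means the rest.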

Biological target: Metabotropic glutamate receptor 8 (Rattus norvegicus) (UniProt P70579)
Assay: rat mGluR8 modulators via GIRK flux, primary screen, cell-based, thallium flux, HTS (AID 488969)
Details: HEK293 rat mGluR8, GIRK (G protein-gated inwardly rectifying potassium channel) thallium flux, FluoZin2; at 10 µM; stronger effect = higher value; submaximal glutamate (EC20) added with thallium

UniProt P70579, sequence (P70579 whole entry, looked up): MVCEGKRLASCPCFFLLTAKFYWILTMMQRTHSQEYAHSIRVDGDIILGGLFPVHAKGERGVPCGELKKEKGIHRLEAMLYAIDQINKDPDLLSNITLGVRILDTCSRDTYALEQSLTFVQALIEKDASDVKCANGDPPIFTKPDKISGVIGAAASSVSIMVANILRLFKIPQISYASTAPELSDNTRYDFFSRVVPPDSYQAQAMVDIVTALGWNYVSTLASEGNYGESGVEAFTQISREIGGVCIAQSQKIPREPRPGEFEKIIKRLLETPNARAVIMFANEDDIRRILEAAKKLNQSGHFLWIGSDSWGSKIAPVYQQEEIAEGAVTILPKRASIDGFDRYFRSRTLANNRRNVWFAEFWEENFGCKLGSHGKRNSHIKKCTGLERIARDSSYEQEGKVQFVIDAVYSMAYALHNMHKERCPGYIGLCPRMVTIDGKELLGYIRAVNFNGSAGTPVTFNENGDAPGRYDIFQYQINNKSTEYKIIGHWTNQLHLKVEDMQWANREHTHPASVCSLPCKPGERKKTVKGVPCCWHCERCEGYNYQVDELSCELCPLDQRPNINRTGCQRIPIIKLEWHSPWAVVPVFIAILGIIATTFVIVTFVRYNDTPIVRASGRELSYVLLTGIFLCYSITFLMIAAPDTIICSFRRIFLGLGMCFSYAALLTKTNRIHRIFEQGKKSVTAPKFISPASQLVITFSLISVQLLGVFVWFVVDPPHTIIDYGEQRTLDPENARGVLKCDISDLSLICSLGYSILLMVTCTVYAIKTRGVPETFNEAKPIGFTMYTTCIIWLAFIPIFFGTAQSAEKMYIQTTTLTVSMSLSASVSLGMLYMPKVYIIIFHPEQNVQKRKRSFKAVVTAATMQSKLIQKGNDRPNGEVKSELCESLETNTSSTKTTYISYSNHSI

SMILES	z-score
Cn1c(C(=O)NCCN2CCc3ccccc3C2)cc2c(=O)n(C)c3ccccc3c21	2.7
Cc1oc(-c2ccccc2Cl)nc1CSCC(=O)N1CCCC1	0.236
Cc1ccc(S(=O)(=O)Cc2ccccc2Cl)cc1	-0.187
CCC(C(=O)NCc1ccco1)N(C(=O)CNS(=O)(=O)c1ccccc1)c1ccc(OC)cc1 (stereo not given)	-0.622
CCOc1ccc(Oc2c(/C=N/NC(=O)C3CC3)c(C)nn2-c2ccccc2)cc1	0.189
O=S(=O)(NC1CCCCC1)c1ccc(F)c2ccccc12	0.851
O=C(NC(Nc1ncc(S(=O)(=O)c2ccc([N+](=O)[O-])cc2)s1)(C(F)(F)F)C(F)(F)F)c1ccc(Cl)cc1	0.648
Cc1ccc(-c2cnc(NC(=O)c3cccc(Br)c3)s2)c(C)c1	-0.494
COc1cc(CNc2ccc3[nH]c(=O)[nH]c3c2)cc(Cl)c1OCC(=O)NC(C)(C)C	0.206
COc1ccc(/C(C)=N\NC(=O)CSc2nnc(C)s2)cc1	0.105
O=C(CCc1nc2ccccc2s1)OCc1ccccc1	-0.24
CCCCn1nnc(NC(=O)c2cc3ccccc3o2)n1	-0.00864
O=C(c1cc(-c2ccccc2O)on1)N1CCc2ccccc2C1	0.426
O=C(CSCc1ccc(Cl)cc1)Nc1ccc2c(c1)OCO2	0.863
Cc1cccc(C)c1OCC(=O)NCc1nnc(SCC(=O)NC2CCCCC2)n1C	-0.406
COc1ccccc1N1CCN(C(=O)c2cc(N3C(=O)C4C5CCC(C5)C4C3=O)ccc2Cl)CC1 (stereo not given)	0.256
Cc1ccc2nc(NC(=O)COC(=O)CSc3nc(C)cc(C)n3)sc2c1	-0.273
CC(=O)c1ccccc1OCC(O)CN1CCN(C(c2ccccc2)c2ccccc2)CC1 (stereo not given)	0.908
CCOC(=O)c1cnc2c(cnn2C)c1NCCC#N	-0.0584
Cc1ccc(-n2c(C)cc(C3=NNC(=NC4CC4)SC3)c2C)cc1C	0.236
CC(C)(C)NC(=O)/C(=C/c1ccco1)c1ccccc1	-0.0597
CCOC(=O)c1c(NC(=S)Nc2ccccc2)sc2c1CCN(CC)C2	-0.00236
N#Cc1ccc(-c2csc(NC3=NCCCCC3)n2)cc1	-2.16
CN1CCN(CCNC(=O)Nc2ccccc2C(F)(F)F)CC1	-0.464

SMILES	z-score
Cc1oc(-c2ccccc2F)nc1CS(=O)CC(=O)NCc1cccs1 (stereo not given)	-0.253
CC(=O)[C@@H]1[C@@H]2C(=O)N(C3CCCCC3)C(=O)[C@@H]2C2c3ccccc3C=CN21 (stereo not given in full)	0.56
CCC(C)NS(=O)(=O)c1ccc(NC(C)=O)cc1 (stereo not given)	0.254
C=CCOc1c(Br)cc(CNc2nccs2)cc1OC	-0.161
CC(C)OC(=O)c1cccc(C(=O)Oc2ccccc2)n1	-0.633
COc1ccc(S(=O)(=O)NC2CCCC2)cc1Br	-1.19
CCCC(=O)OCC(=O)Nc1ccc(N=Nc2ccccc2)cc1	0.427
CCNc1ccc(C(=O)OCC)cc1NC(=O)c1cccc(N(C)C)c1	0.628
O=[N+]([O-])c1ccccc1/C=N/N1CCN(c2ccccn2)CC1	0.0626
Cc1cccc(C)c1OCc1nnc(SCC(=O)Nc2nccs2)o1	0.503
C/C(=N\NC(=S)Nc1cccc(C)c1)c1cccc(N)c1	active: 3.42
c1ccc(-n2ncc3c(NCc4ccco4)ncnc32)cc1	-0.23
COc1ccc(CNC(=O)COC(=O)CC2CC3CCC2C3)cc1OC (stereo not given)	-0.113
O=C(c1cnc2sccn2c1=O)N1CCc2ccccc2C1	-0.156
COc1ccc(/C=N/c2c(-c3ccc(OC)cc3)nc3n2CCS3)cc1	0.116
C=CCNC(=O)c1onc(CSc2ccc(C(C)C)cc2)c1C(=O)O	-0.328
Cc1n[nH]c(C)c1S(=O)(=O)N1CCOCC1	-0.233
Cc1nc2cccc(C(=O)NC3CCCCC3)c2o1	-0.186
O=C(CCN1CCCCCC1)c1ccccc1	0.0945
COc1ccc(-n2c(=S)[nH]c3cc(C(=O)Nc4ccccc4OC)ccc3c2=O)cc1	-0.173
O=c1c(S(=O)(=O)c2ccc(Cl)cc2)cn(Cc2cccc(F)c2)c2ccc(F)cc12	-0.35
Cc1cccc(-n2c(Cc3ccccc3)nnc2SCC(=O)N2CCOCC2)c1	-0.629
O=C(Nc1ccc(Br)cc1F)c1sccc1-n1cccc1	-0.118
COCC(C)NC(C(=O)Nc1ccc(Cl)c([N+](=O)[O-])c1)c1ccccc1 (stereo not given)	-0.243

SMILES	z-score
CCOC(=O)CCCn1nc(C)n2c(cc3sccc32)c1=O	0.215
CCC(=O)NC(Nc1sc2c(c1C(=O)OC)CCN(C)C2)(C(F)(F)F)C(F)(F)F	0.38
O=C(Nc1nc2nc(-c3ccccc3)cc(=O)n2[nH]1)c1ccccc1	-0.0872
Oc1ccccc1-c1nnc(SCCN2CCOCC2)n1Cc1ccccc1	0.562
CCc1nnc(NC(=O)CSc2nc3cccnc3n2Cc2ccccc2)s1	-0.658
O=C(CCN1C(=O)c2ccc([N+](=O)[O-])cc2C1=O)Nc1cccc(O)c1	0.128
CCN(c1cccc(C(F)(F)F)c1)S(=O)(=O)c1ccc2c(c1)CCN2C(=O)C1CC1	0.506
O=C(CC1CC2CCC1C2)OCC(=O)c1c[nH]c2ccccc12 (stereo not given)	0.111
CCN(CC)CCCN1C(=O)c2oc3ccccc3c(=O)c2C1c1cc(OC)ccc1OC (stereo not given)	0.517
COc1ccc(N2CCN(C(=O)C3COc4ccccc4O3)CC2)cc1 (stereo not given)	-0.0793
CCOc1ccccc1-c1nc(-c2cccc(Br)c2)no1	-0.613
COc1ccc(C(CCN(Cc2ccc(OC)c(OC)c2)C(=O)CCl)c2ccccc2)cc1 (stereo not given)	-2.14
COCC(=O)Nc1ccccc1NC(C)=O	-0.363
O=S(=O)(Nc1ccc(S(=O)(=O)N2CCCCC2)cc1)c1cccs1	0.205
CCCCNC(=O)c1cn(-c2ccc(OCC)cc2)c(=O)c2cc(OC)c(OC)cc12	-1.02
COc1ccc(NC(=S)NNC(=O)OC(C)(C)C)cc1OC	-0.422
Cc1ccc2nc(NC(=O)C3CCN(S(=O)(=O)c4cccc5nsnc45)CC3)sc2c1	0.00727
O=C(O)CCc1ccc(S(=O)(=O)N2CCOCC2)cc1	0.0366
CCOC(=O)C1CCN(Cc2nc3ccc(Cl)cc3n2CCO)CC1	-0.102
CN(C)/C=N/c1ncnc2c1cnn2-c1ccc(C(F)(F)F)cn1	0.77
CC(Oc1ccc(-c2nccc(-c3ccccn3)n2)cc1)C(=O)NN (stereo not given)	-0.32
O=C(O)c1ccccc1C(=O)N1CCN(c2cccc(Cl)c2)CC1	0.309
